Measurements reported in PMC3229578.
No constants are given. Whether binding was seen depends on the method and setting. For some assays here: In cells and extracts the contact can be indirect. Some binding calls cover weakened binding; strength is not graded here. For some assays here: Where a sequence is shown, tags or fusion partners need not be part of it.

Amino acid sequences for entries named in this document (tags omitted). A change or cut given only in a name is not applied to a line headed by its entry. Residues count along the entry.
UniProt Q9WUI0: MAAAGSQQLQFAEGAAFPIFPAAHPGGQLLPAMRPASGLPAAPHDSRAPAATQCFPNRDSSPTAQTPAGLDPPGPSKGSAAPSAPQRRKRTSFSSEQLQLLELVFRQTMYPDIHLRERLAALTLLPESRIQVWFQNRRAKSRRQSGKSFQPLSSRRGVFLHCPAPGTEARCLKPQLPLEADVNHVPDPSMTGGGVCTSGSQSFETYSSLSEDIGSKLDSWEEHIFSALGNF
GST-Mixl1 amino terminal Proline rich domain (aa 1–86): residues 1-86 of Q9WUI0
GST-Mixl1 aa 86–231: residues 86-231 of Q9WUI0
GST-Mixl1 aa 145–231: residues 145-231 of Q9WUI0

How the values were obtained:
FLAG mMixl1 (mouse) = FLAG mMixl1 (mouse) (UniProt Q9WUI0); assay: co-IP; 293T cells co-transfected with FLAG and HA expression plasmids; whole cell lysates in ELB150 buffer; IP with 5 µg anti-FLAG M2 or isotype control antibody, 4°C, protein G beads; Western blot with anti-HA (or anti-T N19)
[1] = target: GST-Mixl1 aa 145–231 (mouse) (UniProt Q9WUI0); assay: pull-down; 293T cells co-transfected with pDEST27 (GST) and pMT2-SM HA plasmids; whole cell lysates in ELB150 buffer on glutathione agarose, 4°C; Western blot with anti-HA
[2] = target: GST-Mixl1 aa 86–231 (mouse) (UniProt Q9WUI0); assay: as above
[3] = target: GST mMixl1 (mammalian) (mouse) (UniProt Q9WUI0); assay: as above
[4] = target: GST-Mixl1 amino terminal Proline rich domain (aa 1–86) (mouse) (UniProt Q9WUI0); assay: as above
[5] = target: endogenous Mixl1 (mouse (endogenous in day 4 embryoid bodies from mouse ESCs)) (UniProt Q9WUI0); assay: co-IP; nuclear proteins of day 4 differentiated Mixl1 GFP/w ESCs; IP with anti-Mixl1 6G2 or rat isotype control antibody; Western blot with anti-Mixl1 2D10 or anti-Brachyury N19
GST-xMix.1 (Xenopus) = target: T1, GST-xMix.1 (Xenopus) (UniProt P21711); assay: pull-down; bacterially made, purified His-Brachyury derivatives incubated with GST-Mixl1 derivatives or GST alone on glutathione beads in ELB150 buffer, 4°C, 3 h; washed in ELB300 (0.3 M KCl); Western blot with anti-T N19; both purified
T1 sequence: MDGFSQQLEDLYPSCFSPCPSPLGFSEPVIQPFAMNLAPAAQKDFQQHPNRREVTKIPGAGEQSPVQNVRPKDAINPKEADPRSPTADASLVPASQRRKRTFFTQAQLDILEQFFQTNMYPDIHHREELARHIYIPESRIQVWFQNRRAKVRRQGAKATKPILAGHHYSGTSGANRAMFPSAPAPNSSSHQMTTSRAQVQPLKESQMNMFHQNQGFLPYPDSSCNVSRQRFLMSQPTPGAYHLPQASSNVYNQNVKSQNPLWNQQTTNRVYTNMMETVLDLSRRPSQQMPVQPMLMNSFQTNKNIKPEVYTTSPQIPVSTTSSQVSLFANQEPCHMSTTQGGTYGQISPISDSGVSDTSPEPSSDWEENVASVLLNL

GST mT (mouse) = target: T2, GST mT (mouse) (UniProt P20293); assay: pull-down; 293T cells co-transfected with pDEST27 (GST) and pMT2-SM HA plasmids; whole cell lysates in ELB150 buffer on glutathione agarose, 4°C; Western blot with anti-HA
T2 sequence: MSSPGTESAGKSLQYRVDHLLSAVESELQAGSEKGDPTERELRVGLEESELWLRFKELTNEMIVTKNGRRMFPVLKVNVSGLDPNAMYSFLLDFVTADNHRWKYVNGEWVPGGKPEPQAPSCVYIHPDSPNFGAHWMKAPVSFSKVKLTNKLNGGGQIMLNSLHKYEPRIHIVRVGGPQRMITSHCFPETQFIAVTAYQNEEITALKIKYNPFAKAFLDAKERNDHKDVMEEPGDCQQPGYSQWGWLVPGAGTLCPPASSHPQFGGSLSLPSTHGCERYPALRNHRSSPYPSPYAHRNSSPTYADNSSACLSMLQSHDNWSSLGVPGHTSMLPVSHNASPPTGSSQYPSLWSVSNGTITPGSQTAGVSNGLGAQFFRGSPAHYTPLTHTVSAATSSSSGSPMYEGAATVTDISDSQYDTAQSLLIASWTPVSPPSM

B1: HA mT (protein, UniProt P20293 1-436)
chain: T2 sequence
- binding (FLAG mMixl1 (mouse)): binds
- binding [1]: binds
- binding [2]: binds
- binding [3]: binds
- binding [4]: binds weakly

B2: endogenous Brachyury (protein, UniProt P20293 1-436)
chain: T2 sequence
- binding [5]: binds

B3: His-Xbra (protein, UniProt P24781 1-432)
chain: MSATESCAKNVQYRVDHLLSAVENELQAGSEKGDPTEKELKVSLEERDLWTRFKELTNEMIVTKNGRRMFPVLKVSMSGLDPNAMYTVLLDFVAADNHRWKYVNGEWVPGGKPEPQAPSCVYIHPDSPNFGAHWMKDPVSFSKVKLTNKMNGGGQIMLNSLHKYEPRIHIVRVGGTQRMITSHSFPETQFIAVTAYQNEEITALKIKHNPFAKAFLDAKERNDYKDILDEGIDSQHSNFSQLGTWLIPNGGSLCSPNPHTQFGAPLSLSSPHGCERYSSLRNHRSAPYPSPYTHRNNSPNNLADNSSACLSMLQSHDNWSTLQMPAHTGMLPMSHSTGTPPPSSQYPSLWSVSNSAITPVSQSGGITNGISSQYLLGSTPHYSSLSHAVPSPSTGSPLYEHGAQTEIAENQYDVTAHSRLSSTWTPVAPPSV
- binding (GST-xMix.1 (Xenopus)): binds

B4: HA-mOct6 (protein, UniProt P21952 1-449)
chain: MATTAQYLPRGPGGGAGGTGPLMHPDAAAAAAAAAERLHAGAAYREVQKLMHHEWLGAGAGHPVGLAHPQWLPTGGGGGGDWAGGPHLEHGKAGGGGTGRADDGGGGGGFHARLVHQGAAHAGAAWAQGGTAHHLGPAMSPSPGAGGGHQPQPLGLYAQAAYPGGGGGGLAGMLAAGGGGAGPGLHHALHEDGHEAQLEPSPPPHLGAHGHAHGHAHAGGLHAAAAHLHPGAGGGGSSVGEHSDEDAPSSDDLEQFAKQFKQRRIKLGFTQADVGLALGTLYGNVFSQTTICRFEALQLSFKNMCKLKPLLNKWLEETDSSSGSPTNLDKIAAQGRKRKKRTSIEVGVKGALESHFLKCPKPSAHEITGLADSLQLEKEVVRVWFCNRRQKEKRMTPAAGAGHPPMDDVYAPGELGPGGGSASPPSAPPPPPPAALHHHHHHTLPGSVQ
- binding (GST mT (mouse)): no binding
